Reference: PubChem BioAssay AID651820 (National Center for Advancing Translational Sciences (NCATS), 2012)
Where “and” joins values, the source holds several entries; their conditions need not be identical. Equal entries are not always repeated. About 12,000 (3.5%) of roughly 340,000 compounds were called active. Inconclusive means that the source gave no clear call. Such entries were picked first, then a sample of the others. Calls follow the shape of the dose curve; as a rule, active = well fitted inhibition curve with a large enough effect; inconclusive = small, poorly fitted or top-dose-only effect, or another doubt; inactive = no such curve, though single readings can be large or run the other way. Potencies of inconclusive entries are doubtful fits and often do not repeat.

experiment: qHTS Assay for Inhibitors of Hepatitis C Virus (HCV); conditions: Huh7.5.1 HCVcc-Cre (HCVcc is cell-culture hepatitis C virus) infection, luciferase reporter, 44 h; activity change, negative = inhibition: at 41.8 µM (top of the series)
Procedure, shortened: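 Whole-lifecycle infectious HCVcc-Cre system; cells 1,000/well, compound then virus (~0.5 moi) added 4 h after plating, 44 h culture. Luciferase read 15 sec following 15 min substrate incubation, room temp.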
% is scaled to controls: 0 for no effect and ±100 for the full control effect; potency is read from the fitted curve at half-maximal effect; tags tell the direction and shape of the fitted curve.

| SMILES | Potency | activity change, negative = inhibition |
| --- | --- | --- |
| COc1ccc(/C=C/C(=O)NCC(=O)N/N=C/c2cc(Br)ccc2OCc2ccccc2)cc1 | inconclusive: 11.2 µM [inhibitor, partial curve] | – |
| Cc1ccc(-c2nnn(Cc3nc(N)nc(N4CCOCC4)n3)n2)cc1 | inconclusive: 10 µM [inhibitor, partial curve] | – |
| Cc1ccc(C2C(C#N)=C(N)OC3=C2C(=O)CC(C)(C)C3)s1 (stereo not drawn) | – | inactive: 18% |
| O=C(Nc1cccc(-c2ccc(N3CCOCC3)nn2)c1)c1ccc([N+](=O)[O-])cc1 | inconclusive: 5.62 µM [inhibitor, single point] | – |
| CCCCC(=O)N/N=C/c1cc([N+](=O)[O-])ccc1N1CCOCC1 | inconclusive: 0.562 µM [inhibitor, full curve, poor fit] | – |
| O=C(CN(c1ccc(Cl)c(Cl)c1)S(=O)(=O)c1ccccc1)N1CCc2ccccc2C1 | inconclusive: 31.6 µM [inhibitor, single point] | – |
| CS(=O)(=O)c1nc(S(=O)(=O)c2ccc(Cl)cc2)c(N2CCCCCC2)s1 | – | inactive: -2.02% |
| CCCCC(CC)CN=C(N)NC(N)=NCCCCCCN=C(N)NC(N)=NCC(CC)CCCC (stereo not drawn) | inconclusive: 22.4 µM [inhibitor, single point] | – |
| FC(F)(F)c1ccc(-c2noc(CN3CCCN(C4CCCCC4)CC3)n2)cc1 | inconclusive: 7.08 µM [inhibitor, partial curve] | – |
| CCN(CC)C(=O)c1ccc(NC(=O)CSc2nnnn2-c2cc(OC)ccc2OC)cc1 | inconclusive: 10 µM [inhibitor, single point] and inconclusive: 15.8 µM [inhibitor, single point] | – |
| CCN(CC)S(=O)(=O)c1cccc(C(=O)N[C@H](C(=O)NCc2ccc(Cl)cc2)C(C)C)c1 | inconclusive: 10 µM [inhibitor, partial curve] | – |
| COCCNC(=O)C(c1ccccc1F)N(C(=O)C(=O)NC1CCCC1)C1CCCCC1 (stereo not drawn) | inconclusive: 2.51 µM [inhibitor, single point] | – |
| CC(C)(C)c1ccc(NC(=O)Nc2ccc(F)cc2)cc1 | active: 10 µM | – |
| Cc1ccc(S(=O)(=O)NCC23C=CC(O2)C2C(=O)N(c4ccccc4)C(=O)C23)cc1 (stereo not drawn) | – | inactive: -6.26% |
| CN(CC(=O)Nc1ccc(Cl)c(Cl)c1)C(=O)C1CCC1 | inconclusive: 8.91 µM [inhibitor, single point] | – |
| CC1(C)CC(=O)C2=C(C1)N(Cc1ccc(F)cc1)C(=O)C2(NC(=O)c1cccnc1)C(F)(F)F (stereo not drawn) | – | inactive: 1.59% |
| O=c1n(Cc2ccccc2Cl)nc2n1-c1ccccc1SC2 | inconclusive: 12.6 µM [inhibitor, single point] | – |
| S=c1[nH]c2ccccc2c2ccccc12 | active: 11.2 µM | – |
| CC(C)(CO)NCc1cc(Br)ccc1OCc1ccccc1 | – | inactive: 8.14% |
| CSc1ccccc1-c1nnc(-c2ccc(Cl)cc2Cl)o1 | inconclusive: 31.6 µM [inhibitor, single point] | – |
| CN(c1ccc(OCC(=O)NCCc2ccccc2)cc1)S(=O)(=O)c1ccc(Cl)cc1 | inconclusive: 22.4 µM [inhibitor, single point] | – |
| O=C(Nc1ccc(N2CCN(C(=O)c3ccccc3)CC2)cc1)c1ccc(Br)o1 | inconclusive: 22.4 µM [inhibitor, single point] | – |

| SMILES | Potency | activity change, negative = inhibition |
| --- | --- | --- |
| CC(C)C(NC(=O)COc1ccccc1)C(=O)O (stereo not drawn) | inconclusive: 3.55 µM [inhibitor, single point] | – |
| CC(C)N1CCN(S(=O)(=O)c2ccccc2)CC1 | – | inactive: 10.4% |
| C[C@@]12C(=O)Nc3ccc(F)cc3C(=O)N1[C@H]1c3cc(Br)ccc3OC[C@@H]1[C@@H]2c1ccccc1 | inconclusive: 2.82 µM [inhibitor, single point] | – |
| CC(=O)Nc1sc(NC(=O)c2ccc([N+](=O)[O-])cc2)nc1-c1cccs1 | inconclusive: 0.501 µM [inhibitor, full curve, poor fit] | – |
| N#CCCn1cc(/C=N/O)c(-c2ccccc2)n1 | – | inactive: 10.4% |
| CCN(CC)S(=O)(=O)c1cccc(-c2nc3n(n2)Cc2ccccc2-3)c1 | inconclusive: 11.2 µM [inhibitor, partial curve, poor fit] | – |
| CCOC(=O)c1sc2nc(C3CC3)cc(-c3ccc(OC)cc3)c2c1N | inconclusive: 0.562 µM [inhibitor, full curve] | – |
| CC(C)C[C@H]1CN=C(Nc2ccccc2)N1CC1CCCC1 | – | inactive: -16.5% |
| CCCc1cc(=O)oc2cc(C)cc(OCC(=O)NCCCn3ccnc3)c12 | inconclusive: 11.2 µM [inhibitor, partial curve, poor fit] | – |
| Cc1ccc(NC(=O)COC(=O)C2(c3ccc(Cl)cc3)CCCC2)cc1 | inconclusive: 31.6 µM [inhibitor, single point] | – |
| CCOP(=O)(CCP(=O)(OCC)OCC)OCC.C[CH2][Sn]([Cl])([Cl])[CH2]C | active: 1.58 µM | – |
| CCN(CC)C(=O)c1cccc(NC(=O)c2cc(-c3ccccn3)nc3ccccc23)c1 | inconclusive: 0.562 µM [inhibitor, full curve, poor fit] | – |
| Cc1cc(C(=O)CSc2nnc(-c3ccccc3F)o2)c(C)n1Cc1cccs1 | – | inactive: -11.3% |
| O=C(COc1ccc(-n2ccnc2)cc1)Nc1cccc(Cl)c1 | inconclusive: 31.6 µM [inhibitor, single point] | – |
| COc1cccc(C2=CC(c3ccc(OC)c(OC)c3)NC(=S)N2)c1 (stereo not drawn) | inconclusive: 14.1 µM [inhibitor, partial curve] | – |
| CCN1CSC(=S)N(Cc2ccccc2)C1 | active: 11.2 µM | – |
| CC(C)CN(CC(C)C)S(=O)(=O)N1CCC(C(=O)NC2CCCCCCC2)CC1 | – | inactive: 5.59% |
| O=C(CC1C=Cc2ccccc2N1C(=O)c1ccccc1)c1ccccc1 (stereo not drawn) | active: 10 µM | – |
| O=C(NCCCN1CCOCC1)c1cc(-c2cccc(Br)c2)nc2ccccc12 | inconclusive: 15.8 µM [inhibitor, single point] | – |
| Cc1cc(=O)oc2cc(OCC3CC(c4ccc(Br)cc4)=NO3)ccc12 (stereo not drawn) | inconclusive: 3.16 µM [inhibitor, partial curve] | – |
| Nc1cc(-c2ccc(Br)cc2)nn1S(=O)(=O)c1ccccc1 | – | inactive: 6% |
